# The other results are listed elsewhere or left out.
# B1: DC-ASGPR L+GEE (Homo sapiens) (protein)
# chain: MTRTYENFQYLENKVKVQGFKNGPLPLQSLLQRLRSGPCHLLLSLGLGLLLLVIICVVGFQNSKFQRDLVTLRTDFSNFTSNTVAEIQALTSQGSSLEETIASLKAEVEGFKQERQAGVSELQEHTTQKAHLGHCPHCPSVCVPVHSEMLLRVQQLVQDLKKLTCQVATLNNNGEEASTEGTCCPVNWVEHQDSCYWFSHSGMSWAEAEKYCQLKNAHLVVINSREEQNFVQKYLGSAYTWMGLSDPEGAWKWVDGTDYATGFQNWKPGQPDDWQGHGLGGGEDCAHFHPDGRWNDDVCQRPYHWVCEAGLGQTSQESH
# Columns and labels:
# Assay in all cases: glycan array binding signal (z-score within array); higher = stronger binding
# Settings in all cases: glycan notation: IUPAC condensed, linker removed
# [1] = target: Gal(b1-4)GlcNAc(b1-3)Gal(b1-4)GlcNAc(b1-2)Man(a1-3)[Gal(b1-4)GlcNAc(b1-3)Gal(b1-4)GlcNAc(b1-2)Man(a1-6)]Man(b1-4)GlcNAc(b1-4)[Fuc(a1-6)]GlcNAc
# Summary of the method: (§1)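 Columns mapping to the same glycan were averaged after glycan names were converted to IUPAC-condensed notation. The data come from 3228 arrays in the Consortium for Functional Glycomics database, limited to those with an available protein sequence. Binding is reported as a within-array Z-score averaged across arrays of one protein sequence and across linkers.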
# [2] = target: Gal(b1-4)GlcNAc(b1-3)Gal(b1-4)GlcNAc(b1-2)[Gal(b1-4)GlcNAc(b1-3)Gal(b1-4)GlcNAc(b1-6)]Man(a1-6)[Gal(b1-4)GlcNAc(b1-3)Gal(b1-4)GlcNAc(b1-2)Man(a1-3)]Man(b1-4)GlcNAc(b1-4)GlcNAc
# Summary of the method: as §1
# [3] = target: Gal(b1-4)GlcNAc(b1-3)Gal(b1-4)GlcNAc(b1-2)[Gal(b1-4)GlcNAc(b1-3)Gal(b1-4)GlcNAc(b1-6)]Man(a1-6)[Gal(b1-4)GlcNAc(b1-3)Gal(b1-4)GlcNAc(b1-2)Man(a1-3)]Man(b1-4)GlcNAc(b1-4)[Fuc(a1-6)]GlcNAc
# Summary of the method: as §1
# [4] = target: Gal(b1-4)GlcNAc(b1-3)Gal(b1-4)GlcNAc(b1-3)Gal(b1-4)GlcNAc
# Summary of the method: as §1
# [5] = target: Gal(b1-4)GlcNAc(b1-3)Gal(b1-4)GlcNAc(b1-3)Gal(b1-4)GlcNAc(b1-2)Man(a1-3)[Gal(b1-4)GlcNAc(b1-3)Gal(b1-4)GlcNAc(b1-3)Gal(b1-4)GlcNAc(b1-2)Man(a1-6)]Man(b1-4)GlcNAc(b1-4)GlcNAc
# Summary of the method: as §1
# [6] = target: Gal(b1-4)GlcNAc(b1-3)Gal(b1-4)GlcNAc(b1-3)Gal(b1-4)GlcNAc(b1-2)Man(a1-3)[Gal(b1-4)GlcNAc(b1-3)Gal(b1-4)GlcNAc(b1-3)Gal(b1-4)GlcNAc(b1-2)Man(a1-6)]Man(b1-4)GlcNAc(b1-4)[Fuc(a1-6)]GlcNAc
# Summary of the method: as §1
# [7] = target: Gal(b1-4)GlcNAc(b1-3)Gal(b1-4)GlcNAc(b1-3)Gal(b1-4)GlcNAc(b1-2)[Gal(b1-4)GlcNAc(b1-3)Gal(b1-4)GlcNAc(b1-3)Gal(b1-4)GlcNAc(b1-6)]Man(a1-6)[Gal(b1-4)GlcNAc(b1-3)Gal(b1-4)GlcNAc(b1-3)Gal(b1-4)GlcNAc(b1-2)Man(a1-3)]Man(b1-4)GlcNAc(b1-4)[Fuc(a1-6)]GlcNAc
# Summary of the method: as §1
# [8] = target: Gal(b1-4)GlcNAc(b1-3)Gal(b1-4)GlcNAc(b1-3)Gal(b1-4)GlcNAc(b1-3)Gal(b1-4)GlcNAc(b1-2)Man(a1-3)[Gal(b1-4)GlcNAc(b1-3)Gal(b1-4)GlcNAc(b1-3)Gal(b1-4)GlcNAc(b1-3)Gal(b1-4)GlcNAc(b1-2)Man(a1-6)]Man(b1-4)GlcNAc(b1-4)GlcNAc
# Summary of the method: as §1
# [9] = target: Gal(b1-4)GlcNAc(b1-3)Gal(b1-4)GlcNAc(b1-3)Gal(b1-4)GlcNAc(b1-3)Gal(b1-4)GlcNAc(b1-2)Man(a1-3)[Gal(b1-4)GlcNAc(b1-3)Gal(b1-4)GlcNAc(b1-3)Gal(b1-4)GlcNAc(b1-3)Gal(b1-4)GlcNAc(b1-2)Man(a1-6)]Man(b1-4)GlcNAc(b1-4)[Fuc(a1-6)]GlcNAc
# Summary of the method: as §1
# [10] = target: Gal(b1-4)GlcNAc(b1-3)Gal(b1-4)GlcNAc(b1-3)Gal(b1-4)GlcNAc(b1-3)Gal(b1-4)GlcNAc(b1-2)[Gal(b1-4)GlcNAc(b1-3)Gal(b1-4)GlcNAc(b1-3)Gal(b1-4)GlcNAc(b1-3)Gal(b1-4)GlcNAc(b1-6)]Man(a1-6)[Gal(b1-4)GlcNAc(b1-3)Gal(b1-4)GlcNAc(b1-3)Gal(b1-4)GlcNAc(b1-3)Gal(b1-4)GlcNAc(b1-2)Man(a1-3)]Man(b1-4)GlcNAc(b1-4)[Fuc(a1-6)]GlcNAc
# Summary of the method: as §1
# [11] = target: Gal(b1-4)GlcNAc(b1-3)Gal(b1-4)GlcNAc(b1-3)Gal(b1-4)GlcNAc(b1-3)Gal(b1-4)GlcNAc(b1-3)Gal(b1-4)GlcNAc(b1-2)Man(a1-3)[Gal(b1-4)GlcNAc(b1-3)Gal(b1-4)GlcNAc(b1-3)Gal(b1-4)GlcNAc(b1-3)Gal(b1-4)GlcNAc(b1-3)Gal(b1-4)GlcNAc(b1-2)Man(a1-6)]Man(b1-4)GlcNAc(b1-4)GlcNAc
# Summary of the method: as §1
# [12] = target: Gal(b1-4)GlcNAc(b1-3)Gal(b1-4)GlcNAc(b1-3)Gal(b1-4)GlcNAc(b1-3)Gal(b1-4)GlcNAc(b1-3)Gal(b1-4)GlcNAc(b1-2)Man(a1-3)[Gal(b1-4)GlcNAc(b1-3)Gal(b1-4)GlcNAc(b1-3)Gal(b1-4)GlcNAc(b1-3)Gal(b1-4)GlcNAc(b1-3)Gal(b1-4)GlcNAc(b1-2)Man(a1-6)]Man(b1-4)GlcNAc(b1-4)[Fuc(a1-6)]GlcNAc
# Summary of the method: as §1
# [13] = target: Gal(b1-4)GlcNAc(b1-3)Gal(b1-4)GlcNAc(b1-3)Gal(b1-4)GlcNAc(b1-3)Gal(b1-4)GlcNAc(b1-3)Gal(b1-4)GlcNAc(b1-2)[Gal(b1-4)GlcNAc(b1-3)Gal(b1-4)GlcNAc(b1-3)Gal(b1-4)GlcNAc(b1-3)Gal(b1-4)GlcNAc(b1-3)Gal(b1-4)GlcNAc(b1-6)]Man(a1-6)[Gal(b1-4)GlcNAc(b1-3)Gal(b1-4)GlcNAc(b1-3)Gal(b1-4)GlcNAc(b1-3)Gal(b1-4)GlcNAc(b1-3)Gal(b1-4)GlcNAc(b1-2)Man(a1-3)]Man(b1-4)GlcNAc(b1-4)[Fuc(a1-6)]GlcNAc
# Summary of the method: as §1
# [14] = target: Gal(b1-4)GlcNAc(b1-3)Gal(b1-4)GlcNAc(b1-3)Gal(b1-4)GlcNAc(b1-3)Gal(b1-4)GlcNAc(b1-3)Gal(b1-4)GlcNAc(b1-3)Gal(b1-4)GlcNAc(b1-2)Man(a1-3)[Gal(b1-4)GlcNAc(b1-3)Gal(b1-4)GlcNAc(b1-3)Gal(b1-4)GlcNAc(b1-3)Gal(b1-4)GlcNAc(b1-3)Gal(b1-4)GlcNAc(b1-3)Gal(b1-4)GlcNAc(b1-2)Man(a1-6)]Man(b1-4)GlcNAc(b1-4)GlcNAc
# Summary of the method: as §1
# [15] = target: Gal(b1-4)GlcNAc(b1-3)Gal(b1-4)GlcNAc(b1-3)GalNAc
# Summary of the method: as §1
# [16] = target: Gal(b1-4)GlcNAc(b1-3)Gal(b1-4)GlcNAc(b1-3)[Gal(b1-4)GlcNAc(b1-3)Gal(b1-4)GlcNAc(b1-6)]GalNAc
# Summary of the method: as §1
# [17] = target: Gal(b1-4)GlcNAc(b1-3)Gal(b1-4)GlcNAc(b1-6)[Gal(b1-3)]GalNAc
# Summary of the method: as §1
# [18] = target: Gal(b1-4)GlcNAc(b1-3)Gal(b1-4)[Fuc(a1-3)]GlcNAc(b1-3)Gal(b1-4)[Fuc(a1-3)]GlcNAc
# Summary of the method: as §1
# [19] = target: Gal(b1-4)GlcNAc(b1-3)GalNAc
# Summary of the method: as §1
# [20] = target: Gal(b1-4)GlcNAc(b1-3)[Fuc(a1-3)GlcNAc(b1-6)]Gal(b1-4)Glc
# Summary of the method: as §1
# [21] = target: Gal(b1-4)GlcNAc(b1-3)[Gal(b1-4)GlcNAc(b1-6)]Gal(b1-4)GlcNAc
# Summary of the method: as §1
# [22] = target: Gal(b1-4)GlcNAc(b1-3)[GlcNAc(b1-6)]Gal(b1-4)GlcNAc
# Summary of the method: as §1
# [23] = target: Gal(b1-4)GlcNAc(b1-6)Gal(b1-4)GlcNAc
# Summary of the method: as §1
# [24] = target: Gal(b1-4)GlcNAc(b1-6)GalNAc
# Summary of the method: as §1
# [25] = target: Gal(b1-4)GlcNAc(b1-6)[Gal(b1-3)]GalNAc
# Summary of the method: as §1
# [26] = target: Gal(b1-4)GlcNAc(b1-6)[Gal(b1-4)GlcNAc(b1-3)]GalNAc
# Summary of the method: as §1
# [27] = target: Gal(b1-4)GlcNAc6P
# Summary of the method: as §1
# [28] = target: Gal(b1-6)Gal
# Summary of the method: as §1
# [29] = target: Gal3S(b1-3)GalNAc
# Summary of the method: as §1
# [30] = target: Gal3S(b1-3)GlcNAc
# Summary of the method: as §1
# [31] = target: Gal3S(b1-3)[Fuc(a1-4)]GlcNAc
# Summary of the method: as §1
# [32] = target: Gal3S(b1-4)Glc
# Summary of the method: as §1
# [33] = target: Gal3S(b1-4)Glc6S
# Summary of the method: as §1
# [34] = target: Gal3S(b1-4)GlcNAc
# Summary of the method: as §1
# [35] = target: Gal3S(b1-4)[Fuc(a1-3)]Glc6S
# Summary of the method: as §1
# [36] = target: Gal3S(b1-4)[Fuc(a1-3)]GlcNAc
# Summary of the method: as §1
# [37] = target: Gal3S(b1-4)[Fuc(a1-3)]GlcNAc6S
# Summary of the method: as §1
binder,measurement,setting,value
B1,glycan array binding signal (z-score),[1],-0.215
same,glycan array binding signal (z-score),[2],0.604
same,glycan array binding signal (z-score),[3],-0.323
same,glycan array binding signal (z-score),[4],-0.221
same,glycan array binding signal (z-score),[5],-0.068
same,glycan array binding signal (z-score),[6],0.102
same,glycan array binding signal (z-score),[7],0.024
same,glycan array binding signal (z-score),[8],-0.356
same,glycan array binding signal (z-score),[9],-0.256
same,glycan array binding signal (z-score),[10],2.52
same,glycan array binding signal (z-score),[11],0.526
same,glycan array binding signal (z-score),[12],-0.111
same,glycan array binding signal (z-score),[13],1.34
same,glycan array binding signal (z-score),[14],0.991
same,glycan array binding signal (z-score),[15],0.133
same,glycan array binding signal (z-score),[16],0.178
same,glycan array binding signal (z-score),[17],-0.495
same,glycan array binding signal (z-score),[18],-0.203
same,glycan array binding signal (z-score),[19],-0.353
same,glycan array binding signal (z-score),[20],-0.166
same,glycan array binding signal (z-score),[21],-0.441
same,glycan array binding signal (z-score),[22],-0.101
same,glycan array binding signal (z-score),[23],-0.61
same,glycan array binding signal (z-score),[24],2.32
same,glycan array binding signal (z-score),[25],-0.336
same,glycan array binding signal (z-score),[26],-0.432
same,glycan array binding signal (z-score),[27],-0.684
same,glycan array binding signal (z-score),[28],-0.84
same,glycan array binding signal (z-score),[29],0.442
same,glycan array binding signal (z-score),[30],0.009
same,glycan array binding signal (z-score),[31],0.213
same,glycan array binding signal (z-score),[32],0.278
same,glycan array binding signal (z-score),[33],0.233
same,glycan array binding signal (z-score),[34],-0.527
same,glycan array binding signal (z-score),[35],-0.592
same,glycan array binding signal (z-score),[36],0.09
same,glycan array binding signal (z-score),[37],0.135

# Reference: the supplement of paper PMC8728848
